Assay results reported in the supplement of paper PMC8728848.
This is one part of the list.

Legend:
Assay in all cases: glycan array binding signal (z-score within array); higher = stronger binding
Conditions in all cases: glycan notation: IUPAC condensed, linker removed
[1] = biological target: Gal(b1-3)GlcNAc(b1-6)[Gal(b1-3)]GalNAc
In short: (§1)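 The binding signal is a Z-score computed within each array and averaged over linkers. Arrays of the same protein sequence at different concentrations or buffers were also averaged together. Data originate from 3228 arrays in the Consortium for Functional Glycomics database, kept only where the protein sequence was available.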

Gal(b1-3)GlcNAc6S = biological target: Gal(b1-3)GlcNAc6S
In short: as §1

[2] = biological target: Gal(b1-3)[Fuc(a1-4)]GlcNAc
In short: as §1

[3] = biological target: Gal(b1-3)[Fuc(a1-4)]GlcNAc(b1-2)Man
In short: as §1

[4] = biological target: Gal(b1-3)[Fuc(a1-4)]GlcNAc(b1-2)Man(a1-3)[Gal(b1-3)[Fuc(a1-4)]GlcNAc(b1-2)Man(a1-6)]Man(b1-4)GlcNAc(b1-4)[Fuc(a1-6)]GlcNAc
In short: as §1

[5] = biological target: Gal(b1-3)[Fuc(a1-4)]GlcNAc(b1-3)Gal(b1-3)[Fuc(a1-4)]GlcNAc
In short: as §1

[6] = biological target: Gal(b1-3)[Fuc(a1-4)]GlcNAc(b1-3)Gal(b1-4)[Fuc(a1-3)]GlcNAc
In short: as §1

[7] = biological target: Gal(b1-3)[Fuc(a1-4)]GlcNAc(b1-6)GalNAc
In short: as §1

[8] = biological target: Gal(b1-3)[GlcNAc(b1-6)]GalNAc
In short: as §1

[9] = biological target: Gal(b1-3)[Neu5Ac(a2-6)]GalNAc
In short: as §1

[10] = biological target: Gal(b1-3)[Neu5Ac(a2-6)]GlcNAc(b1-4)Gal(b1-4)Glc
In short: as §1

[11] = biological target: Gal(b1-3)[Neu5Ac(b2-6)]GalNAc
In short: as §1

Gal(b1-4)Gal = biological target: Gal(b1-4)Gal
In short: as §1

[12] = biological target: Gal(b1-4)GalNAc(a1-3)[Fuc(a1-2)]Gal(b1-4)GlcNAc
In short: as §1

[13] = biological target: Gal(b1-4)GalNAc(b1-3)[Fuc(a1-2)]Gal(b1-4)GlcNAc
In short: as §1

Gal(b1-4)Glc = biological target: Gal(b1-4)Glc
In short: as §1

Gal(b1-4)Glc6S = biological target: Gal(b1-4)Glc6S
In short: as §1

Gal(b1-4)GlcNAc = biological target: Gal(b1-4)GlcNAc
In short: as §1

[14] = biological target: Gal(b1-4)GlcNAc(a1-6)Gal(b1-4)GlcNAc
In short: as §1

Gal(b1-4)GlcNAc(b1-2)Man = biological target: Gal(b1-4)GlcNAc(b1-2)Man
In short: as §1

[15] = biological target: Gal(b1-4)GlcNAc(b1-2)Man(a1-3)Man(b1-4)GlcNAc(b1-4)GlcNAc
In short: as §1

[16] = biological target: Gal(b1-4)GlcNAc(b1-2)Man(a1-3)[Gal(b1-4)GlcNAc(b1-2)Man(a1-6)]Man(b1-4)GlcNAc(b1-4)GlcNAc
In short: as §1

[17] = biological target: Gal(b1-4)GlcNAc(b1-2)Man(a1-3)[Gal(b1-4)GlcNAc(b1-2)Man(a1-6)]Man(b1-4)GlcNAc(b1-4)[Fuc(a1-6)]GlcNAc
In short: as §1

[18] = biological target: Gal(b1-4)GlcNAc(b1-2)Man(a1-3)[Gal(b1-4)GlcNAc(b1-2)Man(a1-6)][Gal(b1-4)GlcNAc(b1-4)]Man(b1-4)GlcNAc(b1-4)[Fuc(a1-6)]GlcNAc
In short: as §1

[19] = biological target: Gal(b1-4)GlcNAc(b1-2)Man(a1-3)[Gal(b1-4)GlcNAc(b1-2)Man(a1-6)][GlcNAc(b1-4)]Man(b1-4)GlcNAc(b1-4)[Fuc(a1-6)]GlcNAc
In short: as §1

[20] = biological target: Gal(b1-4)GlcNAc(b1-2)Man(a1-3)[GlcNAc(b1-2)Man(a1-6)]Man(b1-4)GlcNAc(b1-4)GlcNAc
In short: as §1

[21] = biological target: Gal(b1-4)GlcNAc(b1-2)Man(a1-3)[GlcNAc(b1-4)][Gal(b1-4)GlcNAc(b1-2)Man(a1-6)]Man(b1-4)GlcNAc(b1-4)GlcNAc
In short: as §1

[22] = biological target: Gal(b1-4)GlcNAc(b1-2)Man(a1-3)[Man(a1-6)]Man(b1-4)GlcNAc(b1-4)GlcNAc
In short: as §1

[23] = biological target: Gal(b1-4)GlcNAc(b1-2)Man(a1-6)Man(b1-4)GlcNAc(b1-4)GlcNAc
In short: as §1

[24] = biological target: Gal(b1-4)GlcNAc(b1-2)Man(a1-6)[GlcNAc(b1-2)Man(a1-3)]Man(b1-4)GlcNAc(b1-4)GlcNAc
In short: as §1

[25] = biological target: Gal(b1-4)GlcNAc(b1-2)Man(a1-6)[Man(a1-3)]Man(b1-4)GlcNAc(b1-4)GlcNAc
In short: as §1

[26] = biological target: Gal(b1-4)GlcNAc(b1-2)[Gal(b1-4)GlcNAc(b1-4)]Man(a1-3)[Gal(b1-4)GlcNAc(b1-2)Man(a1-6)]Man(b1-4)GlcNAc(b1-4)GlcNAc
In short: as §1

[27] = biological target: Gal(b1-4)GlcNAc(b1-2)[Gal(b1-4)GlcNAc(b1-4)]Man(a1-3)[Gal(b1-4)GlcNAc(b1-2)[Gal(b1-4)GlcNAc(b1-6)]Man(a1-6)]Man(b1-4)GlcNAc(b1-4)GlcNAc
In short: as §1

[28] = biological target: Gal(b1-4)GlcNAc(b1-2)[Gal(b1-4)GlcNAc(b1-4)]Man(a1-3)[GlcNAc(b1-4)][Gal(b1-4)GlcNAc(b1-2)Man(a1-6)]Man(b1-4)GlcNAc(b1-4)GlcNAc
In short: as §1

[29] = biological target: Gal(b1-4)GlcNAc(b1-2)[Gal(b1-4)GlcNAc(b1-4)]Man(a1-3)[GlcNAc(b1-4)][Gal(b1-4)GlcNAc(b1-2)[Gal(b1-4)GlcNAc(b1-6)]Man(a1-6)]Man(b1-4)GlcNAc(b1-4)GlcNAc
In short: as §1

[30] = biological target: Gal(b1-4)GlcNAc(b1-2)[Gal(b1-4)GlcNAc(b1-6)]Man(a1-6)[Gal(b1-4)GlcNAc(b1-2)Man(a1-3)]Man(b1-4)GlcNAc(b1-4)GlcNAc
In short: as §1

[31] = biological target: Gal(b1-4)GlcNAc(b1-2)[Gal(b1-4)GlcNAc(b1-6)]Man(a1-6)[Gal(b1-4)GlcNAc(b1-2)Man(a1-3)]Man(b1-4)GlcNAc(b1-4)[Fuc(a1-6)]GlcNAc
In short: as §1

B1: GS7807P-bth-537-23-537 (Bacteroides thetaiotaomicron) (protein)
chain: NYENINSNPYEAPDLSADGYALGSAMNNLAGCVVSPDVNTAQFTDCLLGGPLGGYFADSNAGFTETISNFNPKDDWSRVFLKSDKIIPTLYSNLTQVKLVSQNTNDPVPYAIAQVIKVAAMHRVTDAFGPIPYSQIGANGEIATPYDSQEVTYNTFFDELNAAIATLNENSNEQLVPTADYIYKGDVKKWIRFANSLKLRLAIRIAYANPVKAQQMAEEAVNPANGGVIESNADNATWNYFETSQNPIYVATRYNQVQTSDHGGVPCLTGGDTHAAADIICYMNGYKDNRREKFFTKSEWAGQDYVGMRRGIVIPELKTTGHKYSGVNIAPTSPLYWMNAAEVAFLRAEGQAVFNFSMGGTAESFYNQGIRLSFEQWGADGVEDYLKDDVNKPTAYTDPAGTNTYQNALSNITIKWNDSADKEEKQERIIVQKWIANWQLGNEAWADFRRTGYPKLIPVKENKSGGVVDSEKGARRMPYPLDEFVSNKANVEYAIANYLHGADNMATDVWWASKK
[1]
  glycan array binding signal (z-score): 0.214
Gal(b1-3)GlcNAc6S
  glycan array binding signal (z-score): 0.073
[2]
  glycan array binding signal (z-score): -0.295
[3]
  glycan array binding signal (z-score): 0.354
[4]
  glycan array binding signal (z-score): 0.989
[5]
  glycan array binding signal (z-score): -0.304
[6]
  glycan array binding signal (z-score): -0.372
[7]
  glycan array binding signal (z-score): 1.8
[8]
  glycan array binding signal (z-score): -0.029
[9]
  glycan array binding signal (z-score): -0.29
[10]
  glycan array binding signal (z-score): 0.182
[11]
  glycan array binding signal (z-score): 0.133
Gal(b1-4)Gal
  glycan array binding signal (z-score): 0.593
[12]
  glycan array binding signal (z-score): -0.108
[13]
  glycan array binding signal (z-score): -0.339
Gal(b1-4)Glc
  glycan array binding signal (z-score): -0.384
Gal(b1-4)Glc6S
  glycan array binding signal (z-score): 0.91
Gal(b1-4)GlcNAc
  glycan array binding signal (z-score): 0.123
[14]
  glycan array binding signal (z-score): -0.34
Gal(b1-4)GlcNAc(b1-2)Man
  glycan array binding signal (z-score): -0.348
[15]
  glycan array binding signal (z-score): 0.315
[16]
  glycan array binding signal (z-score): 0.253
[17]
  glycan array binding signal (z-score): 0.759
[18]
  glycan array binding signal (z-score): 1.49
[19]
  glycan array binding signal (z-score): 0.148
[20]
  glycan array binding signal (z-score): -0.348
[21]
  glycan array binding signal (z-score): 1.4
[22]
  glycan array binding signal (z-score): -0.199
[23]
  glycan array binding signal (z-score): -0.307
[24]
  glycan array binding signal (z-score): -0.202
[25]
  glycan array binding signal (z-score): -0.04
[26]
  glycan array binding signal (z-score): -0.013
[27]
  glycan array binding signal (z-score): -0.235
[28]
  glycan array binding signal (z-score): -0.169
[29]
  glycan array binding signal (z-score): -0.125
[30]
  glycan array binding signal (z-score): -0.251
[31]
  glycan array binding signal (z-score): -0.271
